The results in this text go back to US10988445B2 (AstraZeneca AB, priority 2015, dated 2021).

The experiment concerns the target RORγ ligand binding domain (Homo sapiens (Human), UniProt P51449). The experiment is described as follows: RORγ co-factor recruitment assay (FRET), SRC-1 peptide recruitment. Type of experiment: biochemical. The conditions noted are these: inhibition of SRC-1 (NCOA1_677-700) peptide recruitment to hRORγ LBD.
Sequence of UniProt P51449 (P51449 whole entry, looked up, the tested form may be a part): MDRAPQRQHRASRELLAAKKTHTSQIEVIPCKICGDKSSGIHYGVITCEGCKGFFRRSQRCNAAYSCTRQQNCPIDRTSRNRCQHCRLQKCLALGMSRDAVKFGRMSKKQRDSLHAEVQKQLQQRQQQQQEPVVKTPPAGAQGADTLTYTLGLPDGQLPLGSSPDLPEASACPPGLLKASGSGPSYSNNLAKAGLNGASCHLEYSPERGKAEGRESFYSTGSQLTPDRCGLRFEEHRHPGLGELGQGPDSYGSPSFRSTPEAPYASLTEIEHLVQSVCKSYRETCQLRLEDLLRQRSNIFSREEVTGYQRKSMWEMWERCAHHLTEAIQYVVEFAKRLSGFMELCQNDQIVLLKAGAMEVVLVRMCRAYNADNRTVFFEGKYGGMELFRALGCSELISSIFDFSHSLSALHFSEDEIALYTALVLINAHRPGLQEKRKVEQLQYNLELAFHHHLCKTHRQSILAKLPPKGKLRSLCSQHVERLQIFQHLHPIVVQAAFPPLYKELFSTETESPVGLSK

Regarding `COC1(C(=O)N2Cc3cc(S(C)(=O)=O)ccc3C2C(=O)Nc2ccc(C(O)(C(F)(F)F)C(F)(F)F)cc2)CCC1` (stereo not shown) [Example 448, N-[4-(1,1,1,3,3,3-Hexafluoro-2-hydroxypropan-2-yl)phenyl]-2-[(1-methoxycyclobutyl)carbonyl]-5-(methylsulfonyl)-2,3-dihydro-1H-isoindole-1-carboxamide], the “pIC50 (FRET)” value was 6.1.
